{"source": "PubChem BioAssay (Tox21)", "note": "“And” between values parts separate entries of the source, which are not always exact repeats. Equal values may be shown once. The inconclusive results got no clear call from the source; some entries with a clear call stand among them for comparison. Potencies beside an inconclusive call are fits to weak or partial responses and may not hold up. Some structures have more than one record in an assay (separate samples or runs), and their calls can disagree. The source made the active and inactive calls. Calls follow the shape of the dose curve; as a rule, active = well fitted cell-killing curve with a large enough effect in the repeat runs; inconclusive = weak or mixed curves; inactive = flat fitted curve, though single readings scatter. Potency is read from the fitted curve at half-maximal effect; tags tell the direction and shape of the fitted curve.", "data": [{"test": "qHTS RealTime-Glo MT Cell Viability Assay in HepG2 cells - 24 hour (AID 1224867); also: nearly all actives have a fitted effect of over 50% in size", "conditions": "RealTime-Glo luminescence; series mostly up to 76.8 µM", "description": "U.S. Tox21 Program National Center for Advancing Translational Sciences [NCATS] NIH Chemical Genomics Center [NCGC] U.S. Environmental Protection Agency [EPA] National Institutes of Environmental Health Sciences [NIEHS] National Toxicology Program [NTP] U.S. Food and Drug Administration [FDA] Tox21 Assay Overview: Measure of cell viability is critical in the cell-base assay. Analysis of cell viability is necessary for the characterization of cell responses to cytotoxic drugs and environmental stress. A RealTime-Glo MT Cell Viability Assay to monitor cell viability in real time of continues cell culture during 40 hours of compound treatment was used to screen Tox21 10K library compounds in HepG2 cells. The RealTime-Glo MT Cell Viability Assay is a nonlytic, homogeneous, bioluminescent method to measure cell viability in real time using a simple, plate-based method. The assay involves adding NanoLuc luciferase and a cell-permeant prosubstrate to cells in culture. Viable cells reduce the proprietary prosubstrate to generate a substrate for NanoLuc luciferase. This substrate diffuses from cells into the surrounding culture medium, where it is rapidly used by the NanoLuc Enzyme to produce a luminescent signal. The signal correlates with the number of viable cells, making the assay well suited for cytotoxicity studies.\nTox21 Assay Protocol Summary: The mixture of HepG2 cell suspension and reagents were dispensed at 600cells/6 ul/well in 1536-well tissue culture treated black solid bottom plates using a Multidrop dispenser. After the assay plates were incubated at a 37 C/5% CO2 incubator for 5 hours, 23 nL of compounds dissolved in DMSO, positive and negative controls was transferred to the assay plate by a pintool work station. The plates were incubated at 37 C for 40 hours. The luminescence intensity were measured at 0h, 8h, 16h, 24h, 32h and 40h time points using ViewLux plate reader during compound treatment.", "values": [{"compound": "Cc1ccc([N+](=O)[O-])[c]2c1[O][Hg]2", "Potency": "active: 2.39 µM"}, {"compound": "CC(C)CCCCCCCOP(=O)(Oc1ccccc1)Oc1ccccc1", "Potency": "inactive"}, {"compound": "O=S1(=O)OC(c2cc(Br)c(O)c(Br)c2)(c2cc(Br)c(O)c(Br)c2)c2ccccc21", "Potency": "inactive"}, {"compound": "ClC1=C(Cl)[C@]2(Cl)[C@@H]3[C@@H](Cl)[C@H]4O[C@H]4[C@@H]3C1(Cl)C2(Cl)Cl", "Potency": "inconclusive: 61.6 µM [falling, single point]"}, {"compound": "ClC1=C(Cl)C2(Cl)C3C(Cl)C(Cl)CC3C1(Cl)C2(Cl)Cl", "note": "(stereo not given)", "Potency": "inconclusive: 54.8 µM [falling, single point] and inconclusive: 54.9 µM [falling, single point]"}, {"compound": "O=[N+]([O-])C(Br)(CO)CO", "Potency": "inconclusive: 54.9 µM [falling, single point]"}, {"compound": "CN1C(=O)[C@@H](NC(=O)c2cc3ccccc3[nH]2)N=C(c2ccccc2)c2ccccc21", "Potency": "inconclusive: 19 µM [falling, partial curve, poor fit]"}, {"compound": "CN(C)c1ccc(N)cc1", "Potency": "inconclusive: 47.8 µM [falling, partial curve, poor fit]"}, {"compound": "O=S1OC[C@@H]2[C@H](CO1)[C@]1(Cl)C(Cl)=C(Cl)[C@@]2(Cl)C1(Cl)Cl", "note": "(stereo not given in full)", "Potency": "inconclusive: 54.9 µM [falling, single point]"}, {"compound": "CCCCCCCCc1ccc(O)cc1", "Potency": "inconclusive: 49.3 µM [phenotype inactive, partial curve, poor fit]"}, {"compound": "O=[N+]([O-])c1ccc(O)c([N+](=O)[O-])c1", "Potency": "inactive"}, {"compound": "CC(C)(c1ccccc1)c1ccc(O)cc1", "Potency": "inconclusive: 49 µM [falling, partial curve]"}, {"compound": "Cc1cc(N=Nc2ccccc2C)ccc1N", "Potency": "inconclusive: 49 µM [falling, partial curve, poor fit]"}, {"compound": "CCC[CH2][Sn]([CH2]CCC)([O]C(C)=O)[O]C(C)=O", "Potency": "active: 0.278 µM"}, {"compound": "Clc1ccc(C(c2ccc(Cl)cc2)C(Cl)(Cl)Cl)cc1", "Potency": "inconclusive: 55.3 µM [falling, partial curve, poor fit] and inconclusive: 54.9 µM [falling, partial curve, poor fit]"}, {"compound": "C=CC(=O)OCC(COC(=O)C=C)(COC(=O)C=C)COC(=O)C=C", "Potency": "active: 6.16 µM"}, {"compound": "N#CCCC(Br)(C#N)CBr", "note": "(stereo not given)", "Potency": "active: 38.9 µM"}, {"compound": "OC(c1ccccc1)(c1ccccc1)C1CCNCC1", "Potency": "inactive"}, {"compound": "Cc1nnc2n1-c1sc(CCc3ccc(CC(C)C)cc3)cc1C(c1ccccc1Cl)=NC2C", "note": "(stereo not given)", "Potency": "inconclusive: 21.3 µM [falling, partial curve]"}, {"compound": "O=C1C2CC=CCC2C(=O)N1SC(Cl)(Cl)Cl", "note": "(stereo not given)", "Potency": "active: 24.1 µM"}, {"compound": "O=C(N[C@@H]1N=C(c2ccccc2F)c2cccc3c2N(CC3)C1=O)c1cc2ccccc2[nH]1", "Potency": "inconclusive: 9.52 µM [falling, partial curve]"}, {"compound": "O=C1C(Cl)=C(Cl)C(=O)C(Cl)=C1Cl", "Potency": "inconclusive: 43.5 µM [falling, partial curve] and inconclusive: 21.9 µM [falling, partial curve]"}, {"compound": "Cc1ccc(N)c(N)c1", "Potency": "inactive"}, {"compound": "CN(C)c1ccc(C(=O)c2ccc(N(C)C)cc2)cc1", "Potency": "inconclusive: 43.6 µM [falling, partial curve]"}, {"compound": "Oc1ccc(C(c2ccc(O)cc2)(C(F)(F)F)C(F)(F)F)cc1", "Potency": "inconclusive: 54.9 µM [falling, single point]"}, {"compound": "[CH3][Hg][Cl]", "Potency": "active: 10.9 µM"}, {"compound": "CCc1cccc(C)c1N(C(=O)CCl)[C@@H](C)COC", "Potency": "inconclusive: 54.9 µM [falling, partial curve, poor fit]"}, {"compound": "[Cl][Hg][c]1ccccc1", "Potency": "active: 2.75 µM"}, {"compound": "N#CSCSC#N", "Potency": "active: 50.1 µM and active: 19.3 µM"}, {"compound": "CCCCCCCCCCCCCCCC[N+](C)(C)C", "Potency": "active: 49 µM and active: 23.9 µM"}, {"compound": "CCCOCC(=Nc1ccc(Cl)cc1C(F)(F)F)n1ccnc1", "Potency": "inconclusive: 43.6 µM [falling, partial curve]"}, {"compound": "c1ccc(Nc2ccc3ccccc3c2)cc1", "Potency": "inconclusive: 49 µM [falling, partial curve, poor fit]"}, {"compound": "CO/N=C(/C1=NOCCO1)c1ccccc1Oc1ncnc(Oc2ccccc2Cl)c1F", "Potency": "inconclusive: 48.9 µM [falling, partial curve, poor fit]"}, {"compound": "N#CC(C#N)=NNc1cccc(Cl)c1", "Potency": "active: 19.5 µM"}, {"compound": "CC(C)=CCOc1c2occc2cc2ccc(=O)oc12", "Potency": "inconclusive: 23.9 µM [falling, single point]"}, {"compound": "COC12CC[C@@]3(C[C@@H]1C(C)(O)C(C)(C)C)[C@H]1Cc4ccc(O)c5c4[C@@]3(CCN1CC1CC1)[C@H]2O5", "note": "(stereo not given in full)", "Potency": "active: 43.4 µM"}, {"compound": "CCN(C(C)=O)c1cccc(-c2ccnc3c(C#N)cnn23)c1", "Potency": "inactive"}, {"compound": "CN(C)C(=S)SSC(=S)N(C)C", "Potency": "active: 54.2 µM and active: 436 nM and active: 379 nM"}, {"compound": "ClC1=C(Cl)C2(Cl)C3C(Cl)C=CC3C1(Cl)C2(Cl)Cl", "note": "(stereo not given)", "Potency": "inconclusive: 55.2 µM [falling, single point] and inconclusive: 54.9 µM [falling, single point]"}, {"compound": "CCCCCCCCn1sccc1=O", "Potency": "active: 43.7 µM and active: 16.2 µM"}]}]}
